Laboratory results reported in the supplement of paper PMC3334620.
Whole data set: some 33,000 sequences, median “E-score (-0.5 to 0.5)” near -0.056, cut for the highest 2% near 0.38. The list shows a part of the results.

target: Stb4 (UniProt P50104); test: PBM E-score (8-mer binding enrichment) (E-score (-0.5 to 0.5)); higher = stronger / more preferred TF binding; most listed sequences are background and not binding sites; conditions: protein concentration: 200 nM; construct: GST-DNA-binding domain
How it was run: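 Bound GST-tagged yeast transcription factors, applied at about 100-200 nM to double-stranded universal all-10-mer Agilent arrays, were detected with fluorescent anti-GST. Scans were normalised with masliner. A modified Wilcoxon-Mann-Whitney statistic, the E-score, was assigned to each ungapped eight-base word pooled with its reverse complement by the Universal PBM Analysis Suite.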

| Sequence | PBM E-score |
| --- | --- |
| CGGCTGAC | 0.221 |
| CTTCTCGC | 0.0362 |
| AGCTACAC | -0.191 |
| AGCGAACG | -0.188 |
| CGGTTGCA | 0.0731 |
| ACGAATCG | 0.0102 |
| CGGAGCCG | 0.352 |
| GATACAGA | -0.0482 |
| ATCATGAG | -0.105 |
| GATACCTA | -0.0288 |
| ATTTCGCC | 0.1 |
| CGTTTCTA | 0.029 |
| CCCACGAA | -0.224 |
| CTTAGGAC | -0.279 |
| AGTGTTTG | -0.118 |
| TACTAGCA | -0.0746 |
| TCCAGTAA | -0.176 |
| ACATTTAG | -0.252 |
| TCGATCGA | 0.0717 |
| GATAGGTA | 0.044 |
| GCTCGCGA | -0.0996 |
| AATCCTGG | -0.0647 |
| CGCCGTGC | 0.0279 |
| CATGCCAG | -0.0883 |
| GAAGGTGC | 0.0841 |

| Sequence | PBM E-score |
| --- | --- |
| GTTCTCTA | 0.0214 |
| CGCTTAGA | -0.0742 |
| GATATCTA | -0.0905 |
| CATCGCCA | -0.0625 |
| AAACCCTT | -0.095 |
| AACTGGCC | -0.0271 |
| CCAAGATA | -0.0753 |
| AGCGTTAT | -0.193 |
| ACGATGTC | -0.2 |
| TGTTAGAA | -0.217 |
| ACACCTAT | -0.116 |
| GGCTGGGA | 0.0024 |
| GTATAAAA | 0.261 |
| GCCTCTCA | 0.0652 |
| CATCCCGA | 0.401 |
| GGTTTCAC | -0.0809 |
| GTAACTTA | -0.0954 |
| TCGTTAGA | -0.0659 |
| ACAACATG | -0.135 |
| AGTTCTAT | -0.0732 |
| ATGCGGAG | 0.0793 |
| ACGAGTGA | -0.148 |
| CTGTTGGC | -0.207 |
| CCGTGAGG | 0.0781 |
| CGATACTC | 0.065 |

| Sequence | PBM E-score |
| --- | --- |
| CCCAGGCA | -0.207 |
| AACGGCCG | 0.208 |
| AACCTCTC | -0.113 |
| AGACGTAC | -0.0194 |
| CAGAAGGG | -0.24 |
| ACGCCACG | -0.115 |
| GACACACA | -0.118 |
| ATCCGCCC | 0.364 |
| CCGCCAGA | 0.0291 |
| CAGCAGCC | -0.101 |
| AACACCTA | -0.251 |
| CACGCAAC | -0.112 |
| ACGGTCAC | -0.0956 |
| CCCATGCC | 0.0716 |
| GCTACCCC | -0.0436 |
| CGTACCAC | 0.084 |
| GGCGCGAA | 0.0921 |
| ATATATTA | -0.0348 |
| GTGAACAC | -0.15 |
| AGTGACCA | -0.139 |
| TCTTAGCA | -0.176 |
| AGTAAGTG | -0.025 |
| ACACTGTG | -0.149 |
| AAAGGGGA | -0.22 |
| TCCGAACA | 0.447 |

| Sequence | PBM E-score |
| --- | --- |
| ACACGCAC | -0.137 |
| CGCGCGAC | 0.0974 |
| GTAATCAC | -0.00202 |
| AGCGCACA | -0.184 |
| CGTAGTTA | -0.0572 |
| ATCGGGAA | 0.412 |
| CACGCGTG | -0.126 |
| TACCCAGA | -0.145 |
| CCGATCAG | 0.27 |
| CACCGAAC | 0.224 |
| ACGTTAAT | 0.0187 |
| CCCCGTTC | 0.0486 |
| AACCGTAC | 0.18 |
| GATAAGCC | 0.14 |
| ACCCACCG | 0.0732 |
| CCGCTCCA | -0.0286 |
| CCCGTAAA | 0.08 |
| AGGCTCCA | -0.139 |
| CATATTAG | -0.0945 |
| GACCTTCC | 0.0856 |
| GACCGGTC | 0.108 |
| GTATGTAA | -0.0166 |
| CACAATTA | -0.147 |
| ACACGGAC | 0.131 |
| GCGGCCAA | -0.0215 |

| Sequence | PBM E-score |
| --- | --- |
| ATTCCTGG | -0.212 |
| ATTACTAG | -0.0786 |
| GAAGGGGA | -0.0938 |
| ACATGGGA | -0.0843 |
| GGCTTGTA | -0.185 |
| CGGATCAC | 0.397 |
| GCCTTACA | -0.311 |
| AGTAAGCG | -0.0174 |
| AAGTTCTC | -0.0164 |
| TATGCTAA | -0.271 |
| CCACCGTC | -0.0117 |
| AGACAGCC | 0.0408 |
| CCCTTTAA | -0.0722 |
| TATACGGA | 0.148 |
| CTGAACGA | -0.223 |
| AAGTACCG | 0.302 |
| CACGCCTG | -0.292 |
| CGCATTGC | -0.0233 |
| ATGCCGTA | 0.078 |
| CTCTCTCA | -0.272 |
| CATCTCAC | -0.106 |
| CTCCGGCC | 0.128 |
| CACACACC | 0.102 |
| AACCGATC | 0.253 |
| GTCACATA | -0.0504 |

| Sequence | PBM E-score |
| --- | --- |
| AGCACCAA | -0.0885 |
| AAGGATTG | -0.0613 |
| ACATCGTG | -0.24 |
| CCATCCGC | 0.28 |
| AAGTTTGT | 0.0293 |
| CAAGGCAG | -0.318 |
| AGGCGTGA | -0.306 |
| TGGCGTAA | -0.192 |
| CCTCAAGG | -0.0686 |
| CGATCCAC | -0.017 |
| ATGCAGGC | -0.169 |
| AAAGAGGC | -0.084 |
| AAGGGAAT | -0.215 |
| ACTGACAC | 0.0382 |
| ATTCCACC | 0.179 |
| GAGCCGAA | 0.423 |
| ATCGAAGA | 0.0116 |
| CTCCTCTC | -0.101 |
| GCCCCCAC | -0.17 |
| CGTAATAA | -0.113 |
| TACAGCCA | -0.161 |
| TTCCACAA | 0.0123 |
| CGTATCGC | 0.107 |
| CGCACTAA | 0.0833 |
| ACGAGGAC | -0.0093 |

| Sequence | PBM E-score |
| --- | --- |
| GGCATCAC | 0.043 |
| GGTATCAC | 0.056 |
| ACAGATAC | 0.12 |
| GTACAGCA | -0.0127 |
| ATACACAT | -0.103 |
| AGCCTAGG | -0.0301 |
| ACCTTAAA | -0.054 |
| AATTCGGT | 0.278 |
| AGGTTTTC | 0.0658 |
| GTCACCTA | -0.331 |
| GTCAGTCA | -0.103 |
| CTGTATAC | -0.188 |
| ACGATTGC | -0.0598 |
| ACTTAATC | -0.0934 |
| GGGAATAA | 0.233 |
| ATAAAAAG | 0.0325 |
| AAAGCGAC | -0.0194 |
| CCTATACA | -0.245 |
| CCATCGCC | -0.0803 |
| CACGGTGC | -0.0954 |
| ACGGGGGA | 0.03 |
| ACGACCCG | 0.251 |
